# Results as given in paper PMC12136788.
# This is one part of the list.
# B1: chr17:7478442:7478443:+_ENSG00000161960_ENST00000293831|hu_mus|FALSE|FALSE (ssRNA)
# RNA: GGGAGUUCUACAGUCCGACGAUCUGAUAUGGCAAAUGUAGCUGUUUUCCCAGUCCCAGACUGGGCUUGAGCAAUCACAUCAUAACCCUUGAUACAAGGAAGAAUAGCUCGCUGCUGGAUGGCAGAGGGCUUCUCAAAACCAUACAACAGAGGAUUGAGCAUCA
# B2: chr7:30890253:30890254:+_ENSMUSG00000049421_ENSMUST00000108200|mus_hu|FALSE|FALSE (ssRNA)
# RNA: GGGAGUUCUACAGUCCGACGAUCUUCCUUCUGGCUAAAAGCUUUUCCACACUCACUACAUUUAAAGGGCUUCUUUCCAGUAUGGAUGUUCUGAUGUUUAAUGAGGUAUUGCUUCUGGCUGAAGGCUCUUCCACACUGAUUACACAACAGAGGAUUGAGCAUCA
# B3: chr1:129365822:129365823:+_ENSMUSG00000036155_ENSMUST00000038361|mus_hu|FALSE|FALSE (ssRNA)
# RNA: GGGAGUUCUACAGUCCGACGAUCAUUUAAAAUUGCUUUCACUGCAUCCUCUACUUCCUCCUGAUUGUUGAGGUCAACAGUCCACACAUGUGGCCGCCCGAUGAAAACUUCAGCGUAAGGAUGCUGGGAUGUCAGCUCUCUCAGCAACAGAGGAUUGAGCAUCA
# B4: chr14:57575763:57575764:+_ENSMUSG00000021945_ENSMUST00000022511|mus_mus|FALSE|FALSE (ssRNA)
# RNA: GGGAGUUCUACAGUCCGACGAUCCACUGUUUUCAGGCCAAAAUACUUAGUGUUAAAGUAGAAUAGGGUAUUCAAAAGUGCUACUGGAGAGUGGGAUCCUAGUUGUUUUAUCCUCCAGAGAUAGUCUUCUUCAACUCGAGAGAACAACAGAGGAUUGAGCAUCA
# B5: chrX:69798090:69798091:-_ENSMUSG00000031343_ENSMUST00000055966|mus_mus|mus_mus_mus_hu_False|48_108 (ssRNA)
# RNA: GGGAGUUCUACAGUCCGACGAUCAAGUCCCCAGGUUCUUGUCGUCUUGAUUCCCCUUGACCAGUGGUUCCAGGGAGAAUAUUAAUCAGGAGAAGAAUCCCAAGGCUGGUCAUGUAACAGUGACUUGUUUGUGUGAUUAUCAUCCAACAGAGGAUUGAGCAUCA
# B6: chr12:104381838:104381839:+_ENSG00000139372_ENST00000392872|hu_hu|motif|central (ssRNA)
# RNA: GGGAGUUCUACAGUCCGACGAUCACAAACAGCAAUGAUGCAGAUAAAGAAUCUUUAAAAUUAUUGGCUUACUGGAUUUACCGGGCAAGAAAAAUUCUAUAUUACUUAUUUUAGUACAUCUCAUGUACAUAAAGCACCAGUUUACAACAGAGGAUUGAGCAUCA
# B7: chr15:81680702:81680703:-_ENSMUSG00000048546_ENSMUST00000050467|mus_hu|FALSE|FALSE (ssRNA)
# RNA: GGGAGUUCUACAGUCCGACGAUCAAGGGAGUGGGGACUGGGGUCAGACCUAUUCAGGUGGCAGGGCCCGAGAAGGCCUGCUGAGGUUGGAUGGCUUUGAGUGCGAGGAUAGCUGGGUGACAGAGGCAGUGACACGGGCCAGCCCAACAGAGGAUUGAGCAUCA
# B8: chr2:129036499:129036500:+_ENSMUSG00000027397_ENSMUST00000028880|mus_mus|FALSE|FALSE (ssRNA)
# RNA: GGGAGUUCUACAGUCCGACGAUCGAAUACUGCCAUGAUAGCGGCACUGAUAACCCCAGAGAUGGGGACCGUGACAAACCAGGCCAUAAAAAUGUUUCGAAACAGUCGCCAGUCAACAGCCUUCUUUGAUCGGAGCCAGCCAACCAACAGAGGAUUGAGCAUCA
# B9: 112328734_112335137_240_CDS_ENSG00000108055_ENST00000361804|human|control|control (ssRNA)
# RNA: GGGAGUUCUACAGUCCGACGAUCUGGACGAAGAUGACUAAACUCAUCACUGAGAACAAACUGAAUUGCAUAAAAAAAGUUACUUUUUCCAGAUCCAUUUCUGCCCACAAUCACAUUAUGUUUUGAACUGAAGGGAUCUACAAUCAACAGAGGAUUGAGCAUCA
# B10: 85357621_85393026_341_5pUTR_ENSMUSG00000061130_ENSMUST00000080217|mouse|control|control (ssRNA)
# RNA: GGGAGUUCUACAGUCCGACGAUCAAUGAAUCUGGGGCGAAGGUAGAAAGGGAGGUCUCGCGGGCUCGCCCGCCGCACAGCCGCCCGCGGCCCCCGGCUUUCUCCCGAGACGCGACACCGCCUCCGCCGCCGCUUCGCCCUCGGCAACAGAGGAUUGAGCAUCA
# B11: chr3:97503841:97503842:+_ENSG00000113966_ENST00000463745|hu_hu|FALSE|FALSE (ssRNA)
# RNA: GGGAGUUCUACAGUCCGACGAUCAUCUGGAUGAUUCAGAAGAGUAUCGAGUUCUUCUUUGGCCACAACCAUUCUUAAUCUAUCACUACUAUCAAUGACAAAAAUAAUAGCUUGGCCUUCUUUAUAAUAGUGUUCCCAGAGAUUCAACAGAGGAUUGAGCAUCA
# B12: chr14:72190480:72190481:+_ENSG00000197555_ENST00000381232|hu_hu|FALSE|FALSE (ssRNA)
# RNA: GGGAGUUCUACAGUCCGACGAUCAAAUCCCACGGAGUUUAUGGUUCCUUCGGGUUUUUUCCAUCCAAUCAGGUACUUGCUAGUAGCGCCCUGGCGAGGGUAAAAACUCCUAGGACCAGAGGAGGAGGAGGAAGAGGAGGAGAACAACAGAGGAUUGAGCAUCA
# B13: chr14:60920330:60920331:+_ENSMUSG00000021987_ENSMUST00000022563|mus_hu|FALSE|FALSE (ssRNA)
# RNA: GGGAGUUCUACAGUCCGACGAUCUUUUUUAUUUACCCAAAAGUUUUUGAGUAAACUGAAAGUUAGAUACUCCAGGAACAGCAACUCAUUGAGCAAUAAGGCAGUUUAAAAAUAUACAUAUACAUGUACUAUUCAUUGUUUCUCCAACAGAGGAUUGAGCAUCA
# B14: chr4:115894766:115894767:+_ENSMUSG00000028698_ENSMUST00000030464|mus_hu|mus_mus_mus_hu_True|78_98 (ssRNA)
# RNA: GGGAGUUCUACAGUCCGACGAUCUUCCACACGGAAAGUACUUGGGGGUUUUCCAACGCCAGUACAAAGUCCGGCCAAACUACCCGAACAGGGUCCUCCCCCUCUCUCCUACAGAACACAACAAAAUGCCCCCGAACUUUCAAGCAACAGAGGAUUGAGCAUCA
# B15: chr18:35731848:35731849:+_ENSMUSG00000037236_ENSMUST00000166793|perfect_dup|FALSE|FALSE (ssRNA)
# RNA: GGGAGUUCUACAGUCCGACGAUCCAGUGCACUAUGAGCUCCUUGUUGAUUCAAUGAAGAACUCAUUCCAAGAUUCAUUAAACUAGCAAGGCGUGCAGUACCCUGGUUCAUCCUUCCAAGAGAUGCUGGCAUACUUAAAGACUGCAACAGAGGAUUGAGCAUCA
# B16: 32390466_32390586_7011_3pUTR_ENSMUSG00000053774_ENSMUST00000115151|mouse|control|control (ssRNA)
# RNA: GGGAGUUCUACAGUCCGACGAUCAAAAAUGAGAAAUAUACAUUAAGGCUUAGAAAUAUAAUUUUAAAAGCAUAGCUAAGUGUCUUAAAUUUCAUGACCAAUUUUAGAGGAAUUAAGUAAAGAAUGAAGAAGAGACAGGCAUGUCAACAGAGGAUUGAGCAUCA
# B17: 121125820_121125940_1475_CDS_ENSMUSG00000027254_ENSMUST00000094639|mouse|control|control (ssRNA)
# RNA: GGGAGUUCUACAGUCCGACGAUCAAUCUUCUCAGUAGGGUUGGCUGGGAGCCAUACCACCAAGGCAGUGAUGGAGGUCAGGUAGGGGACGGAGAUCUCUGCCUCCUUCCCAUUGGCCAGCACUAUGCCUGUCUUGGCUUUACUCAACAGAGGAUUGAGCAUCA
# B18: chr2:91395433:91395434:+_ENSMUSG00000040549_ENSMUST00000099716|mus_hu|FALSE|FALSE (ssRNA)
# RNA: GGGAGUUCUACAGUCCGACGAUCUGGCUUAAGCAAGAUGAUUUUGGAACCAAAUUCACUUAAGGCUUUCCUCAGUGUCUCUAUACAGGCCACUAUGAUCUUGGGAUUCUUAUUGUCCAAGCCUUUCAGGAGCUCUUCUUGAACCAACAGAGGAUUGAGCAUCA
# B19: chr1:94914635:94914636:-_ENSMUSG00000014602_ENSMUST00000171796|mus_mus|FALSE|FALSE (ssRNA)
# RNA: GGGAGUUCUACAGUCCGACGAUCGAAGGGGGGAUAGGAGAAGGUAGCUCCACAUGAACCUUACAGCCCUACCUGGAGGCAUUAGAAAUAAAUACUUAUAAACAGAACACAGUCUUAUAGUUAAUGUCUCAGAGGACUGUUUCACAACAGAGGAUUGAGCAUCA
# B20: chr12:39756943:39756944:-_ENSG00000139116_ENST00000544797|hu_mus|hu_hu_hu_mus_False|8_98 (ssRNA)
# RNA: GGGAGUUCUACAGUCCGACGAUCGGUUUGGCUGUUACCCCCGAGGGAAUCCUGCAAGAGUCUUGUCAGCUUAGAGUCUCUGUAAGGGACAUGGGUGGCUCUCUUGCUCUUGUCCCCCAAGGCGCUGAUUACAUUGCCAAGAGCCAACAGAGGAUUGAGCAUCA
# B21: chr2:55462594:55462595:+_ENSG00000143947_ENST00000402285|hu_hu|motif|central (ssRNA)
# RNA: GGGAGUUCUACAGUCCGACGAUCUGCCAUAAACACCCCAGCACCACAUUCAUCAGAAGGGCACUCUCGACGAAGGCGACGGAUUUUGCCAUUCUCAUCCACCUUAUAAUAUUUCAGGACAGCCAGCUUAACCUUCUUUCUCUUCAACAGAGGAUUGAGCAUCA
# B22: 90179398_90179518_1584_CDS_ENSG00000171488_ENST00000370454|human|control|control (ssRNA)
# RNA: GGGAGUUCUACAGUCCGACGAUCAAUGGUGGCUGGUAUCAUUACGUUCUUAAUGAUUUCAAGUUUUAGAGAUUGCAACUCUGUGAUUUCAAAAACAGUGUCUGGAAGGCCAGAGAGCAUGAUAAGAGGCAAUUCCAGUCGAUUCAACAGAGGAUUGAGCAUCA
# Biological target: T1, UNK ZnF1-3 (human, UniProt Q9C0B0 31-174)
# T1 sequence: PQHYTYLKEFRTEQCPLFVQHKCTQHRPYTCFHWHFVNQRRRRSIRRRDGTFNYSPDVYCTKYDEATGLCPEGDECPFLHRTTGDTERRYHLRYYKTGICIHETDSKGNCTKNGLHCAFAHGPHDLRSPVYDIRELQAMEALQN
# Test: nsRBNS (natural sequence RNA bind-n-seq); RBNS binding buffer (assumed for nsRBNS): 25 mM Tris pH 7.5, 150 mM KCl, 3 mM MgCl2, 0.01% Triton X-100, 500 ug/ml BSA, 20 U/ml SUPERase-In, 4 C; UNK is unkempt and MSI1 is Musashi-1; names of the RNAs are library labels; protein concentration not given here; high values mean tight binding
row,Binder,binding signal [enrichment R]
1,B1,0.624
2,B2,0.533
3,B3,0.935
4,B4,1.75
5,B5,0.855
6,B6,1.24
7,B7,1.33
8,B8,1.47
9,B9,1.14
10,B10,0.505
11,B11,0.787
12,B12,1.41
13,B13,0.975
14,B14,1.09
15,B15,0.662
16,B16,1.96
17,B17,0.385
18,B18,0.721
19,B19,1.06
20,B20,0.587
21,B21,1.3
22,B22,1.1
